{
  "source": "PubChem BioAssay AID1460",
  "about": "(National Center for Advancing Translational Sciences (NCATS), 2008)",
  "note": "Where “and” joins values, the source holds several entries; their conditions need not be identical. Equal entries are not always repeated. The whole screen tested about 270,000 compounds, of which about 5,800 (2.1%) were called active. This list was built around the results that the source calls inconclusive (neither active nor inactive); the mix of calls is not that of the screen. The call rests on the fitted dose curve; in most records, active means well fitted inhibition curve with a large enough effect; inconclusive means small, poorly fitted or top-dose-only effect; inactive means flat fitted curve, though single readings scatter. A potency beside an inconclusive call is a rough fit, not a confirmed value. On the % scale 0 is the no-effect control and ±100 the full control effect; potency means the concentration at half of the fitted maximal effect; tags describe the fitted curve by direction and shape.",
  "data": [
    {"target": "Microtubule-associated protein tau (Homo sapiens) (UniProt P10636)", "sequence (P10636 whole entry, looked up)": "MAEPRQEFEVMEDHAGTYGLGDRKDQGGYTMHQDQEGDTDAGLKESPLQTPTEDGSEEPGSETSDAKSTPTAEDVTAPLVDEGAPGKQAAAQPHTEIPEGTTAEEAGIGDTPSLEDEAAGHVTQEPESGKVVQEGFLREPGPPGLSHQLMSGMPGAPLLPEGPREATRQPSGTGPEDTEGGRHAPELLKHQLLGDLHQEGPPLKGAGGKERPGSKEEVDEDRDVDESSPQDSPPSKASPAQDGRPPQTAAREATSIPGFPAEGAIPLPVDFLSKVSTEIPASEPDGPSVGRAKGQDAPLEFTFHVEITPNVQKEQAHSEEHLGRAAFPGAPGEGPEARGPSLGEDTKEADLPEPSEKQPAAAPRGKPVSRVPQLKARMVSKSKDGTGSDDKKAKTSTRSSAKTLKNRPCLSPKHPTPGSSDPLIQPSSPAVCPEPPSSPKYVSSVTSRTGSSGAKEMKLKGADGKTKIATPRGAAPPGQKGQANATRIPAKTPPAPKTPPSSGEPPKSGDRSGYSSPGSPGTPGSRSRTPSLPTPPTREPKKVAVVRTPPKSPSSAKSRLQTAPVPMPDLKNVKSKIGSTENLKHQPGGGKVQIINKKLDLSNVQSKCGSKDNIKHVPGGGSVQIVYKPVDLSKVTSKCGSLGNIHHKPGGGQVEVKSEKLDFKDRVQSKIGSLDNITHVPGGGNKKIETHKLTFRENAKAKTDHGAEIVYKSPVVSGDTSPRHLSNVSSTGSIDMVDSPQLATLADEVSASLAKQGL", "experiment": "qHTS for Inhibitors of Tau Fibril Formation, Thioflavin T Binding; further: nearly all actives have a fitted effect of over 55% in size", "conditions": "recombinant tau K18 P301L, heparin-induced fibrillization, ThT fluorescence; series mostly up to 57.4 µM; activity, negative = inhibition: at the top concentration", "summary_of_the_method": "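Using a mix of unlabeled (15 uM) and Alexa 594-labeled (0.24 uM) tau K18 P301L, heparin-triggered fibrillization over 6 hr at 37 C was scored by ThT fluorescence.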", "values": [
      {"smiles": "O=c1oc2ccccc2c(O)c1C(c1ccccn1)c1c(O)c2ccccc2oc1=O", "Potency": "inconclusive: 39.8 µM [inhibitor, single point]"},
      {"smiles": "CCN(CC)c1ccc([N+](=O)[O-])c2cccnc12", "Potency": "active: 11.2 µM"},
      {"smiles": "CCCCN1C(=O)NC(=O)/C(=C/c2cnc(SC)nc2)C1=O", "Potency": "inconclusive: 2.51 µM [inhibitor, partial curve]"},
      {"smiles": "O=C1NC(=O)N(CCC2=CCCCC2)C(=O)/C1=C\\c1cccs1", "Potency": "inconclusive: 7.94 µM [inhibitor, full curve]"},
      {"smiles": "CCCc1nn(C)c2c1C(c1ccncc1)C(C#N)=C(N)O2", "note": "(centres undefined)", "Potency": "inconclusive: 25.1 µM [inhibitor, partial curve]"},
      {"smiles": "O=C(c1ccccc1)c1ccc(N=Nc2c(O)[nH]c(=O)[nH]c2=O)cc1", "Potency": "inconclusive: 3.16 µM [inhibitor, full curve, poor fit]"},
      {"smiles": "CCC(C)NC(=O)c1c(N)n(CC2CCCO2)c2nc3ccccc3nc12", "note": "(centres undefined)", "Potency": "inconclusive: 25.1 µM [inhibitor, partial curve]"},
      {"smiles": "COc1ccc(CCNCc2ccc(F)cc2)cc1OC", "activity, negative = inhibition": "inactive: -10.6%"},
      {"smiles": "Cc1ccc(S(=O)(=O)c2nnn3c2nc(N2CCC(C(N)=O)CC2)c2cc(Cl)ccc23)cc1C", "Potency": "inconclusive: 28.2 µM [inhibitor, single point]"},
      {"smiles": "CCCCN1C(=O)NC(=O)C2(Cc3cc(C)ccc3N(C)C2)C1=O", "note": "(centres undefined)", "Potency": "inconclusive: 39.8 µM [inhibitor, single point]"},
      {"smiles": "S=c1[nH]nc(-c2ccc3ccccc3n2)n1-c1ccc2c(c1)OCCO2", "Potency": "inconclusive: 22.4 µM [inhibitor, partial curve]"},
      {"smiles": "NN=C(N)N", "Potency": "inconclusive: 14.1 µM [inhibitor, partial curve]"},
      {"smiles": "COc1cc2c(cc1O)CC1c3c(cc(O)c(OC)c3-2)CCN1C", "note": "(centres undefined)", "Potency": "inactive and inconclusive: 708 nM [inhibitor, partial curve] and inconclusive: 11.2 µM [inhibitor, partial curve]"},
      {"smiles": "Cc1ccc(-c2nc3ccccc3c(=O)n2-c2ccncc2)cc1", "activity, negative = inhibition": "inactive: -3.53%"},
      {"smiles": "COc1ccc(N2C(=O)NC(=O)/C(=C\\c3ccc([N+](=O)[O-])s3)C2=O)cc1", "Potency": "active: 14.1 µM"},
      {"smiles": "O=[N+]([O-])c1cccc(C2N3CCCN23)c1", "note": "(centres undefined)", "activity, negative = inhibition": "inactive: -1.26%"},
      {"smiles": "COc1ccc(CCNC(=O)c2c(N)n(CCN3CCOCC3)c3nc4ccccc4nc23)cc1", "Potency": "inconclusive: 22.4 µM [inhibitor, single point]"},
      {"smiles": "CN1C[C@@H](C(=O)N[C@@]2(C)O[C@]3(O)C4CCCN4C(=O)[C@@H](Cc4ccccc4)N3C2=O)C=C2c3cccc4[nH]cc(c34)C[C@@H]21", "note": "(some centres undefined)", "Potency": "inconclusive: 3.16 µM [inhibitor, full curve]"},
      {"smiles": "N#CC1=C(N)Oc2n[nH]c(-c3cccs3)c2C1c1ccco1", "note": "(centres undefined)", "Potency": "active: 15.8 µM"},
      {"smiles": "COc1ccc(-c2nc3ccccc3c(=O)o2)cc1", "Potency": "inconclusive: 15.8 µM [inhibitor, partial curve]"},
      {"smiles": "Cc1cccc(OP(=O)(NCc2ccccc2)Oc2cccc(C)c2)c1", "Potency": "inconclusive: 31.6 µM [inhibitor, single point]"},
      {"smiles": "CCCCn1c(O)c(C(CC)=Nc2cccc(C(=O)O)c2)c(=O)[nH]c1=O", "activity, negative = inhibition": "inactive: -8.64%"},
      {"smiles": "CN(C)c1ccc(C=C2C(=O)NC(=O)NC2=O)cc1[N+](=O)[O-]", "Potency": "inconclusive: 8.91 µM [inhibitor, partial curve]"},
      {"smiles": "COCCCn1c(-c2ccc(OC)cc2)cc(C(=O)NC2CCCCCCC2)c1C", "Potency": "inconclusive: 44.7 µM [inhibitor, single point]"},
      {"smiles": "C[N+]1(C)C2CCC1CC(OC(=O)c1c[nH]c3ccccc13)C2", "note": "(centres undefined)", "Potency": "inconclusive: 31.6 µM [inhibitor, single point]"},
      {"smiles": "N#C/C(=C\\c1ccc(O)c(O)c1)C(N)=S", "Potency": "active: 15.8 µM and active: 2.24 µM"},
      {"smiles": "Cc1ccc2[nH]c(C)c(CCNC(=O)c3cc4cc([N+](=O)[O-])ccc4oc3=O)c2c1", "Potency": "inconclusive: 2.82 µM [inhibitor, partial curve]"},
      {"smiles": "COc1ccc(CN2CCN(c3ccccc3)CC2)c(C)c1C", "Potency": "inconclusive: 31.6 µM [inhibitor, partial curve]"},
      {"smiles": "Cc1ccc(N2CCN(CCc3ccccc3)CC2)cc1", "Potency": "inconclusive: 14.1 µM [inhibitor, partial curve]"},
      {"smiles": "O=C1NC(=O)N(Cc2ccccc2)C(=O)/C1=C\\C=C\\c1ccco1", "Potency": "active: 14.1 µM"},
      {"smiles": "CCOP(=O)(OCC)/C(C#N)=C/c1ccoc1", "Potency": "inconclusive: 5.01 µM [inhibitor, full curve, poor fit]"},
      {"smiles": "COC(=O)c1ccc(N2CCN(C)CC2)c([N+](=O)[O-])c1", "activity, negative = inhibition": "inactive: 1.74%"},
      {"smiles": "CCN(CC)c1ccc(N=Cc2c(O)n(CCC3=CCCCC3)c(=O)[nH]c2=O)cc1", "Potency": "inconclusive: 3.98 µM [inhibitor, partial curve]"},
      {"smiles": "CN(C)c1ccc(C(=O)c2ccc(N(C)C)cc2)cc1", "Potency": "inconclusive: 35.5 µM [inhibitor, partial curve]"},
      {"smiles": "CC1CCN(c2cc(Br)c([N+](=O)[O-])cc2F)CC1", "Potency": "inconclusive: 14.1 µM [inhibitor, partial curve]"},
      {"smiles": "CC(=O)O[C@H]1C(=O)[C@@]2(C)C([C@H](OC(=O)c3ccccc3)[C@]3(O)C[C@H](OC(=O)[C@H](O)[C@@H](NC(=O)c4ccccc4)c4ccccc4)C(C)=C1C3(C)C)[C@]1(OC(C)=O)CO[C@@H]1C[C@@H]2OC(=O)[C@H](C)NC(=O)c1ccc(-c2c3ccc(=O)cc-3oc3cc(O)ccc23)c(C(=O)O)c1", "note": "(some centres undefined)", "Potency": "inconclusive: 3.98 µM [activator, single point]"},
      {"smiles": "Cc1nn(Cc2ccccc2Cl)c(Cl)c1C(=O)OC(C(=O)NC(N)=O)C(C)C", "note": "(centres undefined)", "activity, negative = inhibition": "inactive: 2.38%"},
      {"smiles": "O=C(NC1(C(F)(F)F)Oc2ccccc2O1)N1CCC2(CC1)OCCO2", "Potency": "inconclusive: 11.2 µM [inhibitor, partial curve]"},
      {"smiles": "NC(N)=N/N=C/c1cn(-c2ccccc2)nc1-c1cccs1", "Potency": "inconclusive: 22.4 µM [activator, partial curve]"},
      {"smiles": "COc1cc(C=C2C(=O)NC(=O)NC2=O)ccc1O", "Potency": "inconclusive: 15.8 µM [inhibitor, partial curve]"},
      {"smiles": "CN1CC(CO)=C[C@H]2c3cccc4[nH]cc(c34)C[C@H]21", "Potency": "inconclusive: 14.1 µM [inhibitor, partial curve]"},
      {"smiles": "C=C/C(=C/C(=O)C[C@H](C)C[C@@H](C)CC[C@H](O)[C@H](C)C(=O)C[C@@H](O)[C@H](C)[C@@H](C)OC(=O)C[C@@H](O)C1=C(C)C(=O)OC1=O)CC", "activity, negative = inhibition": "inactive: -13.9% [at 11.5 µM]"},
      {"smiles": "COc1cc(C(c2c(C)[nH]n(-c3ccccc3)c2=O)c2c(C)[nH]n(-c3ccccc3)c2=O)cc(OC)c1OC", "Potency": "inconclusive: 0.562 µM [inhibitor, full curve]"},
      {"smiles": "C=CC1CN2CCC1CC2C(OC(=O)OCC)c1ccnc2ccc(OC)cc12", "note": "(centres undefined)", "activity, negative = inhibition": "inactive: 4.35%"},
      {"smiles": "CC(=O)Nc1ccccc1C(=O)OCc1ccc(C(=O)c2ccccc2)cc1", "Potency": "inconclusive: 35.5 µM [inhibitor, partial curve]"},
      {"smiles": "CCCCn1c(O)c(C(C)=Nc2ccc(OCC)cc2)c(=O)[nH]c1=O", "Potency": "inconclusive: 25.1 µM [inhibitor, single point]"},
      {"smiles": "CCN1C(=O)C(=Cc2ccc(C)s2)C(=O)N(CC)C1=S", "Potency": "active: 14.1 µM"},
      {"smiles": "C[N+]1([O-])CCC[C@@H]1c1cccnc1", "note": "(some centres undefined)", "activity, negative = inhibition": "inactive: 7.06%"},
      {"smiles": "Cc1ccc(C(=O)c2cc(Br)ccc2N)cc1", "Potency": "inconclusive: 25.1 µM [inhibitor, single point]"},
      {"smiles": "CCCCCCN=Cc1c(O)n(C)c(=O)n(C)c1=O", "Potency": "inconclusive: 39.8 µM [activator, single point]"},
      {"smiles": "O=C1NC(=O)N(c2cccc(Cl)c2)C(=O)/C1=C\\c1ccc(Sc2nc3ccccc3[nH]2)o1", "Potency": "active: 12.6 µM"},
      {"smiles": "CN1CCCC(C(=O)c2ccccc2)C1", "note": "(centres undefined)", "activity, negative = inhibition": "inactive: -9.82%"},
      {"smiles": "O=c1cc(CN2CC=C(c3ccccc3)CC2)c2c(ccc3ccccc32)o1", "Potency": "inconclusive: 20 µM [inhibitor, partial curve]"},
      {"smiles": "COCCOC(=O)c1c(N)n(Cc2ccco2)c2nc3ccccc3nc12", "Potency": "inconclusive: 15.8 µM [inhibitor, partial curve]"},
      {"smiles": "O=C1C2CCN(CC2)C1(CO)CO", "Potency": "inconclusive: 20 µM [inhibitor, single point] and inconclusive: 28.2 µM [inhibitor, single point] and inconclusive: 12.6 µM [inhibitor, partial curve, poor fit]"},
      {"smiles": "CCC1(CC)C(=O)NC(=O)NC1=O", "activity, negative = inhibition": "inactive: -0.708%"},
      {"smiles": "Oc1ccc2c3c1O[C@H]1c4[nH]c5c(c4C[C@@]4(O)[C@@H](C2)N(CC2CC2)CC[C@]314)C[C@]1(O)[C@H]2Cc3ccc(O)c4c3[C@@]1(CCN2CC1CC1)[C@@H]5O4", "Potency": "inconclusive: 3.98 µM [inhibitor, full curve]"},
      {"smiles": "O=C1C(Cl)=C(Cl)C(=O)C(Cl)=C1Cl", "Potency": "active: 1.41 µM"},
      {"smiles": "CC(=O)Nc1ccc2c(c1)CC1(C(=O)N(C)C(=O)N(C)C1=O)C1CCCN21", "note": "(centres undefined)", "Potency": "inconclusive: 17.8 µM [inhibitor, partial curve]"},
      {"smiles": "CN1C2CCC1CC(OC(=O)C1CCC(C(=O)OC3CC4CCC(C3)N4C)(c3ccccc3)c3ccccc31)C2", "note": "(centres undefined)", "activity, negative = inhibition": "inactive: -2.6%"},
      {"smiles": "CC1CCN(S(=O)(=O)c2ccc(NN=C(C#N)C#N)cc2)CC1", "Potency": "active: 14.1 µM"},
      {"smiles": "COC(=O)[C@H]1C[C@@H]1[C@H](NP(=O)(c1ccccc1)c1ccccc1)c1ccccc1", "Potency": "inactive"},
      {"smiles": "COCCOC(=O)C1=C(C)OC(N)=C(C(=O)OC)C12C(=O)Nc1ccccc12", "note": "(centres undefined)", "Potency": "active: 39.8 µM"},
      {"smiles": "Cc1nn(C)c(C)c1/C=C1/CC2C3CC=C4CC(O)CCC4(C)C3CCC2(C)C1=O", "note": "(centres undefined)", "Potency": "inconclusive: 22.4 µM [inhibitor, partial curve]"}
    ]}
  ]
}
